B1: PhoQ; a variant is named by its letters at X, in order, P23837 (parent)
chain: MKKLLRLFFPLSLRVRFLLATAAVVLVLSLAYGMVALIGYSVSFDKTTFRLLRGESNLFYTLAKWENNKLHVELPENIDKQSPTMTLIYDENGQLLWAQRDVPWLMKMIQPDWLKSNGFHEIEADVNDTSLLLSGDHSIQQQLQEVREDDDDAEMTHSVAVNVYPATSRMPKLTIVVVDTIPVELKSSYMVWSWFIYVLSANLLLVIPLLWVAAWWSLRPIEALAKEVRELEEHNRELLNPATTRELTSLVRNLNRLLKSERERYDKYRTTLTDLTHSLKTPLXXLQXXLRSLRSEKMSVSDAEPVMLEQISRISQQIGYYLHRASMRGGTLLSRELHPVAPLLDNLTSALNKVYQRKGVNISLDISPEISFVGEQNDFVEVMGNVLDNACKYCLEFVEISARQTDEHLYIVVEDDGPGIPLSKREVIFDRGQRVDTLRPGQGVGLAVAREITEQYEGKIVAGESMLGGARMEVIFGRQHSAPKDE

The other results are listed elsewhere or left out.

The variants in this assay derive from B1. Nature of the assay: enrichment ratio after two sorts for PhoP signalling (ratio (wild type AVST 3.29)); higher = more functional. To be noted: with PhoP (E. coli).
On to LVRH, for which the enrichment ratio was no more than 0.25.

Consider MPTP, for which the enrichment ratio is no more than 0.25.

Turning to IWGK, the enrichment ratio was no more than 0.25.

With ELEV, the enrichment ratio is no more than 0.25.

For SCTL, the enrichment ratio came to 14.2.

In the case of GVMK, the enrichment ratio was no more than 0.25.

As for LSQC, the enrichment ratio came to 0.388.

Take KITG: the enrichment ratio is no more than 0.25.

Turning to DDVV, the enrichment ratio is 2.72.

Take GHED: the enrichment ratio is no more than 0.25.

Consider PQLR, for which the enrichment ratio is no more than 0.25.

In the case of FHYG, the enrichment ratio is no more than 0.25.

On to KSGS, for which the enrichment ratio is no more than 0.25.

Take EFPS: the enrichment ratio was no more than 0.25.

YMGG: the enrichment ratio was no more than 0.25.

With KSSA, the enrichment ratio is no more than 0.25.

As for SIQY, the enrichment ratio is no more than 0.25.

For WLPR, the enrichment ratio is no more than 0.25.

In the case of GKRV, the enrichment ratio was no more than 0.25.

With PPPG, the enrichment ratio is no more than 0.25.

For SCVE, the enrichment ratio is no more than 0.25.

Consider ATYD, for which the enrichment ratio was no more than 0.25.

PLTW: the enrichment ratio was no more than 0.25.

For SPGY, the enrichment ratio was no more than 0.25.

Turning to ARGK, the enrichment ratio was no more than 0.25.

Consider PMFN, for which the enrichment ratio is no more than 0.25.

As for YDYP, the enrichment ratio is no more than 0.25.

Regarding DTSN, the enrichment ratio is no more than 0.25.

Consider GIQI, for which the enrichment ratio was no more than 0.25.

Turning to TMRR, the enrichment ratio was no more than 0.25.

For PSPP, the enrichment ratio is no more than 0.25.

Regarding KHHQ, the enrichment ratio is no more than 0.25.

For the variant INMR, the enrichment ratio was no more than 0.25.

Take HRSD: the enrichment ratio is no more than 0.25.

With KGKL, the enrichment ratio is no more than 0.25.

With AQWP, the enrichment ratio is no more than 0.25.

As for WIQR, the enrichment ratio was no more than 0.25.

Consider NPFT, for which the enrichment ratio is no more than 0.25.

For the variant AMPR, the enrichment ratio is no more than 0.25.

On to RRCV, for which the enrichment ratio was no more than 0.25.

In the case of WFSF, the enrichment ratio was no more than 0.25.

Consider GDSM, for which the enrichment ratio turned out to be 2.79.

In the case of QAPP, the enrichment ratio was no more than 0.25.

Turning to PEHW, the enrichment ratio was no more than 0.25.

Take HTLY: the enrichment ratio was no more than 0.25.

Turning to RGAA, the enrichment ratio was no more than 0.25.

Regarding ELAC, the enrichment ratio is no more than 0.25.

In the case of WYLQ, the enrichment ratio was no more than 0.25.

Regarding TYPW, the enrichment ratio is no more than 0.25.

With IQLF, the enrichment ratio was no more than 0.25.

Consider SMQY, for which the enrichment ratio was no more than 0.25.

For HLIL, the enrichment ratio was no more than 0.25.

SPCH: the enrichment ratio is no more than 0.25.

For the variant TNNM, the enrichment ratio was no more than 0.25.

PVIL: the enrichment ratio was no more than 0.25.

For the variant YFQA, the enrichment ratio was no more than 0.25.

For QHLA, the enrichment ratio was no more than 0.25.

Turning to KDVD, the enrichment ratio was no more than 0.25.

Turning to KEES, the enrichment ratio was no more than 0.25.

For the variant HFHK, the enrichment ratio was no more than 0.25.

With QLNR, the enrichment ratio is no more than 0.25.

In the case of DKIA, the enrichment ratio is no more than 0.25.

As to PWDI, the enrichment ratio is no more than 0.25.

As for LGWN, the enrichment ratio was no more than 0.25.

With YTSV, the enrichment ratio was no more than 0.25.

In the case of KPWP, the enrichment ratio was no more than 0.25.

For PVHF, the enrichment ratio was no more than 0.25.

As to LGFN, the enrichment ratio is 0.331.

Take YVWL: the enrichment ratio came out at 0.577.

On to SVPQ, for which the enrichment ratio is no more than 0.25.

Consider VYPD, for which the enrichment ratio is no more than 0.25.

For the variant AARA, the enrichment ratio is no more than 0.25.

As to NWNI, the enrichment ratio was no more than 0.25.

As for GGEF, the enrichment ratio was no more than 0.25.

For WKLV, the enrichment ratio was no more than 0.25.

Regarding MQFA, the enrichment ratio was no more than 0.25.

VRWC: the enrichment ratio is no more than 0.25.

For FNAQ, the enrichment ratio was no more than 0.25.

For IFQW, the enrichment ratio is no more than 0.25.

In the case of ARCG, the enrichment ratio was no more than 0.25.

Take GMYI: the enrichment ratio is no more than 0.25.

For DFIF, the enrichment ratio is no more than 0.25.

As to RRTW, the enrichment ratio was no more than 0.25.

Take MDFR: the enrichment ratio is no more than 0.25.

With NTWS, the enrichment ratio is no more than 0.25.

On to ITPY, for which the enrichment ratio was no more than 0.25.

For the variant TLHP, the enrichment ratio is no more than 0.25.

Take PLPN: the enrichment ratio was no more than 0.25.

In the case of WKHW, the enrichment ratio was no more than 0.25.

On to NVQF, for which the enrichment ratio was no more than 0.25.

As for HYHL, the enrichment ratio was no more than 0.25.

Consider DDCH, for which the enrichment ratio is no more than 0.25.

Consider DKGV, for which the enrichment ratio was no more than 0.25.

On to FRNT, for which the enrichment ratio was no more than 0.25.

In the case of PLNN, the enrichment ratio was no more than 0.25.

With MHYA, the enrichment ratio is no more than 0.25.

Take AEMC: the enrichment ratio is 6.24.

For VSLL, the enrichment ratio is 9.06.

Regarding ENCK, the enrichment ratio was no more than 0.25.

With HRFC, the enrichment ratio was no more than 0.25.

Turning to WYYC, the enrichment ratio was no more than 0.25.

With RQCG, the enrichment ratio was no more than 0.25.

For MHKW, the enrichment ratio was no more than 0.25.

With WLYL, the enrichment ratio was no more than 0.25.

On to DCTP, for which the enrichment ratio is no more than 0.25.

On to PCDE, for which the enrichment ratio is no more than 0.25.

On to PFKQ, for which the enrichment ratio was no more than 0.25.

Regarding GMRM, the enrichment ratio is no more than 0.25.

For the variant KRFQ, the enrichment ratio was no more than 0.25.

As to AIPY, the enrichment ratio was no more than 0.25.

In the case of TIYW, the enrichment ratio was no more than 0.25.

PYDC: the enrichment ratio was no more than 0.25.

Turning to DSWN, the enrichment ratio is no more than 0.25.

As for KGHL, the enrichment ratio is no more than 0.25.

As for TWNS, the enrichment ratio was no more than 0.25.

GQCT: the enrichment ratio came out at 10.8.

With MMRQ, the enrichment ratio was no more than 0.25.

Consider QDFI, for which the enrichment ratio is no more than 0.25.

Turning to QLWL, the enrichment ratio is no more than 0.25.

Turning to NVDS, the enrichment ratio is no more than 0.25.

MFRL: the enrichment ratio was no more than 0.25.

For IWIE, the enrichment ratio was no more than 0.25.

On to REMR, for which the enrichment ratio was no more than 0.25.

Regarding RWWY, the enrichment ratio was no more than 0.25.

As to TSKN, the enrichment ratio was no more than 0.25.

Consider LYWF, for which the enrichment ratio was no more than 0.25.

Consider AWIM, for which the enrichment ratio was no more than 0.25.

As for LHCN, the enrichment ratio is no more than 0.25.

AFGR: the enrichment ratio is no more than 0.25.

NCCW: the enrichment ratio was no more than 0.25.

For the variant SAIF, the enrichment ratio came out at 1.39.

On to STMD, for which the enrichment ratio was 9.32.

In the case of WDGQ, the enrichment ratio is no more than 0.25.

With DWPR, the enrichment ratio was no more than 0.25.

For the variant EVKQ, the enrichment ratio is no more than 0.25.

Consider KTTQ, for which the enrichment ratio was no more than 0.25.

On to LVYI, for which the enrichment ratio is 0.646.

In the case of WHLV, the enrichment ratio is no more than 0.25.

For RCNV, the enrichment ratio was no more than 0.25.

Take PFTR: the enrichment ratio is no more than 0.25.

As to VPRG, the enrichment ratio was no more than 0.25.

Take DSNE: the enrichment ratio was no more than 0.25.

Consider ITQA, for which the enrichment ratio was no more than 0.25.

Turning to NEHV, the enrichment ratio is no more than 0.25.

Take RIMY: the enrichment ratio was no more than 0.25.

IVNK: the enrichment ratio is no more than 0.25.

For QYPQ, the enrichment ratio is no more than 0.25.

As to GGLR, the enrichment ratio was no more than 0.25.

As to RHCM, the enrichment ratio is no more than 0.25.

VVVN: the enrichment ratio was no more than 0.25.

Regarding VYHW, the enrichment ratio was no more than 0.25.

Regarding HDTE, the enrichment ratio is no more than 0.25.

Regarding RLHK, the enrichment ratio is no more than 0.25.

The values are drawn from a collection of fitness landscapes (doi:10.1126/science.1257360).
